# The campaign covered roughly 310,000 compounds. About 14,000 (4.5%) showed an effect of 50% or more. Effects have a minus sign here. The list shows a part of the results.
# Molecular target: human ether-à-go-go-related gene (hERG) potassium channel (human, UniProt Q12809)
# Assay: primary screen, population patch clamp on CHO cells stably expressing hERG
# 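Note: peak tail current of the secondary pulse compared with the same well before compound.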
# Chain of human ether-à-go-go-related gene (hERG) potassium channel (Q12809 whole entry, looked up): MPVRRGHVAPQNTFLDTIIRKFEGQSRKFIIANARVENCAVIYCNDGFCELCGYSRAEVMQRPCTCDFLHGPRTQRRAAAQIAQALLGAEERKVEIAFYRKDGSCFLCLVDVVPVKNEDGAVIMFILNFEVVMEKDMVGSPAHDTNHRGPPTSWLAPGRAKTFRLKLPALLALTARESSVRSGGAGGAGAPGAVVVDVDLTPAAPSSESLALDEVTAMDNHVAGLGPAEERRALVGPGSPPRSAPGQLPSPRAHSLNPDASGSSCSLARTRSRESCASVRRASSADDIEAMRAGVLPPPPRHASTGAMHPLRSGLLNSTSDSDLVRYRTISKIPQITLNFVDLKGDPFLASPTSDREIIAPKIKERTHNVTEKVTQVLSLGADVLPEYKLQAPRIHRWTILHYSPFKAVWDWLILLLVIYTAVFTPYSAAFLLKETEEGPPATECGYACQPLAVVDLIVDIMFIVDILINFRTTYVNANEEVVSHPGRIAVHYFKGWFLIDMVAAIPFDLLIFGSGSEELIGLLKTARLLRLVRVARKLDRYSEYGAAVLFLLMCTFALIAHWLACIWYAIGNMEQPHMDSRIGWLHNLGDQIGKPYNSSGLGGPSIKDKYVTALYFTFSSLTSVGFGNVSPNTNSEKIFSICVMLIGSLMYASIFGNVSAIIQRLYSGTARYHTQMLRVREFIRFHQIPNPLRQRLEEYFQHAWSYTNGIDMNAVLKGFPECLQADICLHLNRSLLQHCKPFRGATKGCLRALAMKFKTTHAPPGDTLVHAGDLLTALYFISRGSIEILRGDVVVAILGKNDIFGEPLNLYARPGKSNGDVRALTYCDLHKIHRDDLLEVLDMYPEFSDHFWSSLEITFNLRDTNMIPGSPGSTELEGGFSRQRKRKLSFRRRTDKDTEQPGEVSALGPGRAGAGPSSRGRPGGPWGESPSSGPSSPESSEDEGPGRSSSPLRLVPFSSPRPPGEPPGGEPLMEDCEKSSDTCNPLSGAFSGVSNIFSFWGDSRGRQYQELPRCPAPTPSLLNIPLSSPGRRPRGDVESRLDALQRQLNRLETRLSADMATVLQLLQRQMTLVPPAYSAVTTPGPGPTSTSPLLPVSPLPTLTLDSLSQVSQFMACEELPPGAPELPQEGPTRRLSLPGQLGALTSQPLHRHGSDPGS
row,Compound,"hERG current change (%, negative = inhibition) at 10uM [%]"
1,Cc1ccc2oc(C(=O)N3CCC(O)(c4ccccc4)CC3)c(C)c2c1,-11.2
2,CC(C)CC(=O)OC1C(N2CCOCC2)c2c(ccc(/C=C/C(=O)N3CCOCC3)c2O)OC1(C)C (stereo not shown),-11.2
3,CCc1cc2c(SCC(=O)c3ccc(C)cc3)ncnc2s1,9.65
4,Cc1nn(C)c(C)c1S(=O)(=O)N1CCCC(C(=O)N2CCN(c3ccccc3)CC2)C1 (stereo not shown),-27.6
5,CC1(C)CC(=O)c2cnc(NCC3CCCO3)nc2C1 (stereo not shown),7.24
6,COc1cccc(OC)c1C(=O)Nc1ccc2c(c1)CCCN2S(=O)(=O)c1ccc(C)cc1,12.8
7,CN(C)NC(=S)Nc1cccc(Cl)c1,14.3
8,COc1ccc(NS(=O)(=O)c2ccc(Br)s2)cc1OC,2.93
9,O=C(N/N=C/c1cn(-c2cccs2)nc1-c1ccccc1)c1ccc(O)cc1,13.8
10,Cc1c(C(=O)NCCSCc2ccc(F)cc2)cnn1-c1ccc(Cl)cc1,-34.6
11,COc1cccc(/C=C/C(=O)c2cccc([N+](=O)[O-])c2)c1OC,-6.85
12,CCOc1ccc(CNS(=O)(=O)c2ccc(-c3ccc(=O)[nH]n3)o2)cc1OC,18.5
13,COc1cc(/C=C/C(=O)NC(C)C)ccc1OCc1ccccc1,10.5
14,O=c1[nH]cnc2scc(-c3cccs3)c12,9.55
15,CCN(CC)S(=O)(=O)c1cccc(NC(=O)COC(=O)CCc2nc3ccccc3s2)c1,3.13
16,CCOC(=O)/C(C#N)=N/Nc1c(S(=O)(=O)Cc2ccco2)csc1C(=O)OC,11.4
17,COc1ccc(Cl)cc1NC(=O)CSc1nncn1-c1cccnc1,-20.7
18,Cn1c(=O)[nH]c(=O)c2c1nc(SCC(=O)[O-])n2CCOc1ccccc1.[Na+],20.3
19,CC1=NC(C)(C)Cc2c(C)cccc21.Cl,-3.65
20,COc1ccc(CCNC(=O)COc2ccc(S(=O)(=O)NC(C)C)cc2Cl)cc1OC,-0.335
21,C=C(C)CSc1nnc([C@@H]2CCCN2)o1.Cl,17.7
22,COc1ccccc1NS(=O)(=O)c1ccc(C(=O)NCCCN2CCCC2=O)cc1,-0.345

row,Compound,"hERG current change (%, negative = inhibition) at 10uM [%]"
1,Cc1c(NC(=O)Cc2ccccc2)cccc1C(=O)NN1C(=O)c2ccccc2C1=O,-10.2
2,COc1ccc(-n2nc(C(=O)NCC(=O)NCC3CCCO3)c3ccccc3c2=O)cc1 (stereo not shown),5.92
3,CC1CCCN(C(=O)CCS(=O)(=O)Cc2ccccc2)C1 (stereo not shown),11.9
4,CCn1c(CCCOc2ccc(Cl)cc2Cl)nnc1SCC(=O)Nc1cc(F)ccc1C,-13.1
5,CC(=O)NCCC(=O)Nc1nc2c(ccc3ccccc32)s1,7.52
6,O=C(OCC(=O)c1c[nH]c2ccccc12)c1cccc(S(=O)(=O)N2CCCCCC2)c1,-4.9
7,C[C@H](NC(=O)N1CCn2c1nc1ccccc12)C(=O)NC1CC1,19.5
8,COc1ccccc1NS(=O)(=O)c1ccc(O)c(NC(=S)NCC2CCCO2)c1 (stereo not shown),7
9,CCCC(c1nnnn1C1CCCC1)N1CCN(C(=O)c2ccco2)CC1.Cl (stereo not shown),-32.9
10,O=C(Nc1ccc(C(F)(F)F)cc1)C1CCN(S(=O)(=O)c2ccc(N3CCCC3=O)cc2)CC1,18
11,CCOC(=O)C1CCN(C(=O)COC(=O)c2cc([N+](=O)[O-])ccc2N2CCOCC2)CC1,-12.6
12,O=C(O)CC(c1ccccc1)n1cccc1 (stereo not shown),6.13
13,O=S(=O)(c1cccs1)N1CCN(c2cccc(Cl)c2)CC1,9.08
14,COc1c(Cl)cc(-c2noc(C)c2C(=O)NCc2ccc3c(c2)OCO3)cc1Cl,2.73
15,Cc1ccc(NC(=O)c2ccc(-n3cccn3)c([N+](=O)[O-])c2)cc1,-23.7
16,CCn1c(CSc2nnc3ccccn23)nc2cc(C(=O)O)ccc21,-3.91
17,COC(=O)c1ccc(N2C(=O)CC(N3CCC(O)(c4ccc(Br)cc4)CC3)C2=O)cc1 (stereo not shown),-8.14
18,Cc1nc(-c2cccnc2)sc1C(=O)Nc1ccc(C(F)(F)F)cc1,-6.46
19,CCNc1nc(NCC)nc(OCCNS(=O)(=O)c2ccccc2)n1,12.8
20,Cn1c2ccccc2n2c(=O)c(=O)n(CC(=O)c3ccc(F)cc3)nc12,2.5
21,COC(=O)C1C(=O)c2c([nH]c(C(=O)OCCSC)c2C)CC1C (stereo not shown),-17.3

# — article PMC4336329 (PLoS ONE, 2015)
